In the supplement of paper PMC11876631:
Positions count from the first letter of the chain named. Names and notes keep the numbering of the source. ± gives the standard deviation of the averaged measurements. Laboratory Escherichia coli strains with one amino-acid change in an essential protein, pooled on minimal glucose agar with carbenicillin or gentamicin at twice the control MIC (plus kanamycin and chloramphenicol for the plasmids), 48 h. Fold change of barcode share against drug-free plates; higher = less susceptible. Active = above 20 in both replicates (the paper's putatively resistant). '<' = one read or none on drug, '>' = one read or none on a drug-free plate. Shares are relative, so most strains fall below 1 when a few take over. Listed are strains with at least 15 reads on both drug-free plates, and hits; most hits rest on fewer reference reads. Replicate rank correlation about 0.5. Edits are read from barcodes.

B1: cysI V221A (protein)
chain: MSEKHPGPLVVEGKLTDAERMKHESNYLRGTIAEDLNDGLTGGFKGDNFLLIRFHGMYQQDDRDIRAERAEQKLEPRHAMLLRCRLPGGVITTKQWQAIDKFAGENTIYGSIRLTNRQTFQFHGILKKNVKPVHQMLHSVGLDALATANDMNRNVLCTSNPYESQLHAEAYEWAKKISEHLLPRTRAYAEIWLDQEKVATTDEEPILGQTYLPRKFKTTVAIPPQNDIDLHANDMNFVAIAENGKLVGFNLLVGGGLSIEHGNKKTYARTASEFGYLPLEHTLAVAEAVVTTQRDWGNRTDRKNAKTKYTLERVGVETFKAEVERRAGIKFEPIRPYEFTGRGDRIGWVKGIDDNWHLTLFIENGRILDYPARPLKTGLLEIAKIHKGDFRITANQNLIIAGVPESEKAKIEKIAKESGLMNAVTPQRENSMACVSFPTCPLAMAEAERFLPSFIDNIDNLMAKHGVSDEHIVMRVTGCPNGCGRAMLAEVGLVGKAPGRYNLHLGGNRIGTRIPRMYKENITEPEILASLDELIGRWAKEREAGEGFGDFTVRAGIIRPVLDPARDLWD
B2: cysI I399A (protein)
chain: B1 chain with A221V, I399A
B3: cysI I362W (protein)
chain: B1 chain with A221V, I362W
B4: cysI V238A (protein)
chain: B1 chain with A221V, V238A
B5: cysI V238W (protein)
chain: B1 chain with A221V, V238W
B6: cysI V238Q (protein)
chain: B1 chain with A221V, V238Q
B7: cysI V238P (protein)
chain: B1 chain with A221V, V238P
B8: acpS V11W (protein)
chain: MAILGLGTDIWEIARIEAVIARSGDRLARRVLSDNEWAIWKTHHQPVRFLAKRFAVKEAAAKAFGTGIRNGLAFNQFEVFNDELGKPRLRLWGEALKLAEKLGVANMHVTLADERHYACATVIIES
B9: cysJ I570A (protein)
chain: MTTQVPPSALLPLNPEQLARLQAATTDLTPTQLAWVSGYFWGVLNQQPAALAATPAPAAEMPGITIISASQTGNARRVAEALRDDLLAAKLNVKLVNAGDYKFKQIASEKLLIVVTSTQGEGEPPEEAVALHKFLFSKKAPKLENTAFAVFSLGDSSYEFFCQSGKDFDSKLAELGGERLLDRVDADVEYQAAASEWRARVVDALKSRAPVAAPSQSVATGAVNEIHTSPYSKDAPLVASLSVNQKITGRNSEKDVRHIEIDLGDSGMRYQPGDALGVWYQNDPALVKELVELLWLKGDEPVTVEGKTLPLNEALQWHFELTVNTANIVENYATLTRSETLLPLVGDKAKLQHYAATTPIVDMVRFSPAQLDAEALINLLRPLTPRLYSIASSQAEVENEVHVTVGVVRYDVEGRARAGGASSFLADRVEEEGEVRVFIEHNDNFRLPANPETPVIMIGPGTGIAPFRAFMQQRAADEAPGKNWLFFGNPHFTEDFLYQVEWQRYVKDGVLTRIDLAWSRDQKEKVYVQDKLREQGAELWRWINDGAHIYVCGDANRMAKDVEQALLEVAAEFGGMDTEAADEFLSELRVERRYQRDVY
B10: cysJ I570W (protein)
chain: B9 chain with A570W

Target: Escherichia coli (laboratory strain)
Assay: barcode share on antibiotic plates over drug-free plates; higher = less susceptible
Protocol: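 A pool of E. coli strains, each edited to carry one amino-acid change in an essential protein, was grown for 48 h on minimal glucose agar with or without antibiotic; strain barcodes were sequenced; mean of two replicates.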

[1] = antibiotic: carbenicillin, 2× MIC (3.1 µg/mL)
[2] = antibiotic: gentamicin, 2× MIC (MIC 0.45 µg/mL)

Row | Protein | fold change of barcode share [1] | fold change of barcode share [2]
1 | B1 | 0.298 ± 0.14 | 0.028 ± 0.00081
2 | B2 | 0.956 ± 0.97 | –
3 | B3 | 0.455 ± 0.035 | –
4 | B4 | 0.756 ± 0.24 | 0.03579 ± 3.7e-05
5 | B5 | 1.76 ± 1 | 0.0244 ± 0.026
6 | B6 | 1.006 ± 0.0043 | 0.131 ± 0.06
7 | B7 | 2.58 ± 2.3 | 0.0372 ± 0.036
8 | B8 | 0.161 ± 0.087 | < 0.0111
9 | B9 | 0.545 ± 0.23 | 0.0145 ± 0.0072
10 | B10 | 0.321 ± 0.011 | –
